Reference: patent US9018256B2, “Feed additive for animals of P-thymol, salt derivative or ester derivative thereof” (priority 2011, dated 2015)
Where two headings read alike, the source gives them in different places.

Columns and labels:
[1] = tested on: 50-day-old healthy three-way cross pigs; test: Growth promoting effect of p-thymol and salt or ester derivatives on 50-day-old pigs; conditions: 100 ppm in feed, 30 days; for Total Feed Consumption / Total Weight Gain: 20 per group; for Relative Weight Gain Rate: control = 100
[2] = tested on: Lingnan yellow big chicken; test: Comparison of chicken growth promoting effects of p-thymol, thymol and carvacrol; type: in vivo; conditions: 100 ppm in feed, 1 to 21-day-old chickens
[3] = tested on: Lingnan yellow big chicken; conditions: 1 to 21-day-old chickens; for Total Feed Consumption / Total Weight Gain: 50 per group; for Relative Weight Gain Rate: control = 100
[4] = tested on: three-way cross weaned pigs; test: Growth promoting effect test on weaned pigs; type: in vivo, pig; conditions: 100 ppm in feed, 30 days
[5] = Volatility comparison under reduced-pressure drying; conditions: 1 hour; for weight remained after reduced-pressure drying: initial weight 10.0 g
[6] = Changes in chicken complete formula feed during preservation (gas chromatography); conditions: placed for 2 months
Chemy Valley ducks = test: Growth promoting effect test on ducks; type: in vivo, duck; conditions: 100 ppm in feed, 1 to 46-day-old ducks

## Cc1cc([O-])ccc1C(C)C.[Na+] [p-thymol sodium]
[1]
  Feed Conversion Rate: 2.025
  Survival Rate: 100%
  average weight gain improved compared with the control group: 9.4%
  feed conversation rate reduced compared with the control group: 0.199
  Total Feed Consumption: 693.8 kg
  Total Weight Gain: 342.6 kg
  Relative Weight Gain Rate: 109.4%

## Cc1cc(O)ccc1C(C)C.N [p-thymol ammonium]
[1]
  Feed Conversion Rate: 2.028
  Survival Rate: 100%
  average weight gain improved compared with the control group: 8.9%
  feed conversation rate reduced compared with the control group: 0.197
  Total Feed Consumption: 691.6 kg
  Total Weight Gain: 341.0 kg
  Relative Weight Gain Rate: 108.9%

## Cc1cc(O)ccc1C(C)C [p-thymol, 3-methyl-4-isopropyl-phenol]
[1]
  Feed Conversion Rate: 2.029
  Survival Rate: 100%
  Total Feed Consumption: 693.9 kg
  Total Weight Gain: 342.0 kg
  Relative Weight Gain Rate: 109.2%
[2]
  Average Weight Gain: 344.6 g
  Feed Conversion Rate: 1.716
  Survival Rate: 100%
  feed conversion rate reduced compared with the control group: 0.066
  relative weight gain rate improved compared with the control group: 6.82%
[2]; 50 per group
  Total Feed Consumption: 29.57 kg
  Total Weight Gain: 17.23 kg
[2]; control = 100
  Relative Weight Gain Rate: 106.82%
[3]; 5-500 ppm in feed
  survival rate of each test group: 100%
[3]; 5 ppm in feed
  Average Weight Gain: 330.4 g
  Feed Conversion Rate: 1.776
  Survival Rate: 100%
  Total Feed Consumption: 29.33 kg
  Total Weight Gain: 16.52 kg
  Relative Weight Gain Rate: 101.32%
[3]; 10 ppm in feed
  Average Weight Gain: 338.3 g
  Feed Conversion Rate: 1.734
  Survival Rate: 100%
  Total Feed Consumption: 29.34 kg
  Total Weight Gain: 16.92 kg
  Relative Weight Gain Rate: 103.74%
[3]; 20 ppm in feed
  Average Weight Gain: 341.3 g
  Feed Conversion Rate: 1.718
  Survival Rate: 100%
  Total Feed Consumption: 29.33 kg
  Total Weight Gain: 17.07 kg
  Relative Weight Gain Rate: 104.66%
[3]; 50 ppm in feed
  Average Weight Gain: 343.5 g
  Feed Conversion Rate: 1.705
  Survival Rate: 100%
  Total Feed Consumption: 29.29 kg
  Total Weight Gain: 17.18 kg
  Relative Weight Gain Rate: 105.33%
[3]; 100 ppm in feed
  Average Weight Gain: 348.3 g
  Feed Conversion Rate: 1.681
  Survival Rate: 100%
  Total Feed Consumption: 29.28 kg
  Total Weight Gain: 17.42 kg
  Relative Weight Gain Rate: 106.81%
[3]; 200 ppm in feed
  Average Weight Gain: 347.8 g
  Feed Conversion Rate: 1.686
  Survival Rate: 100%
  Total Feed Consumption: 29.32 kg
  Total Weight Gain: 17.39 kg
  Relative Weight Gain Rate: 106.65%
[3]; 500 ppm in feed
  Average Weight Gain: 350.2 g
  Feed Conversion Rate: 1.671
  Survival Rate: 100%
  Total Feed Consumption: 29.26 kg
  Total Weight Gain: 17.51 kg
  Relative Weight Gain Rate: 107.39%
[3]; over doses 5-500 ppm in feed
  weight gain improved compared with the control group: 1.32-7.39%
[4]
  Feed Conversion Rate: 2.288
  feed conversion rate reduced compared with the control group: 0.133
  relative weight gain rate improved compared with the control group: 7.17%
[4]; 30 per group
  Total Feed Consumption: 800.2 kg
[4]; control = 100
  Relative Weight Gain Rate: 107.17%
[5]; 50° C.
  weight remained after reduced-pressure drying: 9.84 g
[5]; 70° C.
  weight remained after reduced-pressure drying: 8.86 g
[5]; 90° C.
  weight remained after reduced-pressure drying: 6.34 g
[5]; reduced-pressure drying 70° C.
  volatilized part: 11.4%
[5]; reduced-pressure drying 90° C.
  volatilized part: 36.6%
[6]
  loss in complete formula feed: less than 5%
Chemy Valley ducks
  Feed Conversion Rate: 2.676
  Survival Rate: 100%
  feed conversion rate reduced compared with the control group: 0.112
  relative weight gain rate improved compared with the control group: 6.65%
Chemy Valley ducks; 100 per group
  Total Feed Consumption: 943.6 kg
  Total Weight Gain: 352.6 kg
Chemy Valley ducks; control = 100
  Relative Weight Gain Rate: 106.65%

## Cc1ccc(C(C)C)c(O)c1 [thymol, 5-methyl-2-isopropyl-phenol]
[1]
  Feed Conversion Rate: 2.098
  Survival Rate: 100%
  Total Feed Consumption: 680.6 kg
  Total Weight Gain: 324.4 kg
